Publication PMC4336329 (PLoS ONE, 2015)
Screen size: about 310,000 compounds; about 14,000 (4.5%) showed an effect of 50% or more. The effect is printed as a negative number. This is one part of the list.

target: human ether-à-go-go-related gene (hERG) potassium channel (human, UniProt Q12809); assay: primary screen, population patch clamp on CHO cells stably expressing hERG
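Also: peak tail current of the secondary pulse compared with the same well before compound.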

Sequence of human ether-à-go-go-related gene (hERG) potassium channel (Q12809 whole entry, looked up): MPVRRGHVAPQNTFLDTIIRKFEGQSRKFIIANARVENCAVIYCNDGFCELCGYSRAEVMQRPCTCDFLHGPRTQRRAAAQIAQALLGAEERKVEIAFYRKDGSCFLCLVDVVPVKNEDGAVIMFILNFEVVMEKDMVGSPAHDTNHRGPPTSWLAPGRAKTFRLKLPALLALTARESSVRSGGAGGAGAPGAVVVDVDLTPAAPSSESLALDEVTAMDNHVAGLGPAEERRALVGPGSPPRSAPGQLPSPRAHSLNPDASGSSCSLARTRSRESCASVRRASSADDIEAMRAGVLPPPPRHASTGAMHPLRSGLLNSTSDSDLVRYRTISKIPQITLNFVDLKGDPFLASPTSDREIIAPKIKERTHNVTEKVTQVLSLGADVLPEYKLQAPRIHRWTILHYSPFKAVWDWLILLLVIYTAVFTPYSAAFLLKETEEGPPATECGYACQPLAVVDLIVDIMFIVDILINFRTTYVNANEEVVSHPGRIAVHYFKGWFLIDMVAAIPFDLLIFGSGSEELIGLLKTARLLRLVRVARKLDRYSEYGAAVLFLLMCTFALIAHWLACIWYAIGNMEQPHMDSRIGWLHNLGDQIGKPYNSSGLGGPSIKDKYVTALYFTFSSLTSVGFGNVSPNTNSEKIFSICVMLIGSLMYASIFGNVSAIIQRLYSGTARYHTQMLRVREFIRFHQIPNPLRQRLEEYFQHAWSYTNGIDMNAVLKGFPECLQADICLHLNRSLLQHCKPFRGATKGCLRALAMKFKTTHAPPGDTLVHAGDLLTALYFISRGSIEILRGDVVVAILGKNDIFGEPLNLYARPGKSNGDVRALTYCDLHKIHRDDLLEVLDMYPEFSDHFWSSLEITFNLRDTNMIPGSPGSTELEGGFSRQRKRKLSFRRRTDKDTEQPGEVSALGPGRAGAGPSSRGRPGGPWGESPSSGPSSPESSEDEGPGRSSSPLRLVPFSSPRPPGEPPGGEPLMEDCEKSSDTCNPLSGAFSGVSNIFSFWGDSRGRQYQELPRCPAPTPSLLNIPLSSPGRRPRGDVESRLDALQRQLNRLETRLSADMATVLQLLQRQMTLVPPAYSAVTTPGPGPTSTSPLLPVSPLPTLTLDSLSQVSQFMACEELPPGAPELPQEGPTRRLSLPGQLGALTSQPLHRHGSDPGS

| SMILES | hERG current change (%, negative = inhibition) at 10uM |
| --- | --- |
| Cc1ccc(S(=O)(=O)N(C)CCCC(=O)NC(C)(C)C)cc1 | 13.3% |
| Cn1cc(C(=O)N/N=C/c2c(O)ccc3ccccc23)ccc1=O | 25.9% |
| O=C(O)c1ccc(N2CCc3ccccc32)c([N+](=O)[O-])c1 | 25.3% |
| CN1C(=O)C(C)(C)c2cc(S(=O)(=O)N3CCC(C(=O)NCc4ccc(F)cc4)CC3)ccc21 | -10.3% |
| CC[N+]12CCC(CC1)C(=C(c1ccccc1)c1ccccc1)C2.[Br-] | -73.6% |
| Cc1ccc(-n2nnc3c(=O)n(Cc4ccccn4)cnc32)cc1C | 22.3% |
| FC(F)(F)c1ccc(Sc2n[nH]c(C(F)(F)F)n2)nc1 | 19.5% |
| O=C(O)CSc1cc(C(=O)c2cc(F)ccc2O)cn2c(=O)c3c(-c4ccccc4)csc3nc12 | 16.5% |
| Cc1ccc(CSCC(=O)N2CCN(c3ccc(F)cc3)CC2)cc1 | -32.7% |
| Nc1nc(-c2ccco2)nn1S(=O)(=O)c1ccccc1 | 6.91% |
| COc1ccc(NC(=O)CC2C(=O)N(c3ccc(Cl)cc3)C(=S)N2CCc2ccccn2)cc1 (stereo not shown) | -13.9% |
| N#Cc1ccccc1S(=O)c1ccccc1C(=O)Nc1ccccc1 (stereo not shown) | 2.42% |
| CCOC(=O)c1ccc(Oc2c(C)oc3c(CN4CCN(C)CC4)c(O)ccc3c2=O)cc1 | -4.33% |
| CSc1ccc(S(=O)(=O)Nc2ccc(S(=O)(=O)Nc3ccc(C)cc3)cc2)cc1 | -0.453% |
| CNCCCNC(=O)c1ccc(/C=N/O)nc1 | 16% |
| Cc1cccc(OCC(=O)N2CCN(Cc3cccnc3)CC2)c1.O=C(O)C(=O)O | -3.95% |
| CCN(CC)CCN(C(=O)c1cc(Cl)sc1Cl)c1nc2cc3c(cc2s1)OCO3.Cl | -24.7% |
| Cn1ncc2c(N3CCOCC3)ncnc21 | 7.07% |
| CCCn1c(C)cc(C(=O)COC(=O)c2c(C)nn(-c3ccccc3)c2C)c1C | -2.09% |
| CSCCC(NC(=O)COc1ccccc1)C(=O)N1CCN(c2ccccc2Cl)CC1 (stereo not shown) | -40.2% |
| CCOC(=O)C1=C(C)NC(SC(C)=O)=NC1c1ccc(OC(C)=O)c(OC)c1 (stereo not shown) | -9.09% |
| O=C(CNc1n[nH]c(=O)[nH]c1=O)N/N=C/C=C/c1ccccc1 | 5.51% |
| COc1ccc(C2C(C#N)=C(N)OC3=C2C(=O)CC(C)(C)C3)cc1Cn1nc(C)c([N+](=O)[O-])c1C (stereo not shown) | -50.6% |
| CSc1ccc(NC(=O)NCCCN2CCC(Cc3ccccc3)CC2)cc1 | -75.9% |
| CCOC(=O)c1ccc(N2CN(C3CCCCC3)CNC2=S)cc1 | 27.7% |
| C=CCC(C)(NCc1ccccc1)c1ccc(C)cc1.Cl (stereo not shown) | -9.55% |
| O=c1oc2ccccc2n1Cc1ccccc1 | 21.2% |
| COc1cc(C(=O)NNC(=O)c2cc(=O)[nH]c3ccccc23)cc(OC)c1OC | 11.2% |

| SMILES | hERG current change (%, negative = inhibition) at 10uM |
| --- | --- |
| CCn1c(SCC(=O)NCCc2ccc(Cl)cc2)nnc1-c1cccs1 | -75.8% |
| CCn1c(Cc2ccccc2)nnc1SCC(=O)OC(C)C | 0.117% |
| Clc1ccc(Oc2ccccc2)c2ncccc12 | 2.77% |
| Cc1cc(C(=O)CN2C(=O)C3CC=CCC3C2=O)c(C)n1-c1ccccc1 (stereo not shown) | -2.05% |
| Nc1nonc1-c1noc(N2CCOCC2)n1 | 13.2% |
| O=C(CNS(=O)(=O)c1ccc(Br)s1)N1CCC(N2CCCCC2)CC1 | -49.5% |
| COC(=O)Cn1cc(/C=C/[N+](=O)[O-])c2ccccc21 | 0.0278% |
| COc1cccc(CN2CCNCC2)c1.Cl | 16% |
| O=C(Nc1cccc(S(=O)(=O)N2CCOCC2)c1)C1CCN(S(=O)(=O)c2ccccc2)CC1 | -23.9% |
| C#CCOCCOCCOCCNc1nc(N2CCN(C(=O)CCCCCCCCCCNC(=O)[C@@H](CCSC)n3cc(CCO)nn3)CC2)nc(N2CCN(C(=O)CCCCCCCCCCNC(=O)[C@H](CCSC)n3cc(CCO)nn3)CC2)n1 | 7.74% |
| COc1cc2ccccc2cc1C(=O)Nc1ccc(Cl)cn1 | 35.1% |
| CS(=O)(=O)N1CCN(C(=O)NC2CCCCC2)CC1 | 14.3% |
| CNc1[nH]c(=O)[nH]c(=O)c1N=Nc1cc(Cl)ccc1Cl | 20.6% |
| COc1cnc(-c2ccccc2)[nH]c1=O | 9.27% |
| C=CCOc1c(CNn2cn[nH]c2=S)cccc1OC | 10.4% |
| O=C(CN(C(=O)CNC(=O)c1ccco1)c1ccc2c(c1)OCCO2)NC1CCCCC1 | 27.1% |
| CC(C)C(=O)N/N=C/c1ccc(OCc2ccccc2)cc1 | 17.8% |
| CCCNc1c(NC(C)=O)c(=O)oc2ccccc12 | 6.92% |
| O=c1cc(CN2CCN(C/C=C/c3ccccc3)CC2)c2cc(O)ccc2o1 | -77.5% |
| COc1ccc(Cc2nnc(SCC(=O)Nc3ccccc3)[nH]c2=O)cc1 | 2.14% |
| CC(C)Oc1cccc(-c2cc(C(=O)NC(=S)N(C)c3ccccc3C(=O)O)c3ccccc3n2)c1 | -13% |
| Cc1nnc(SCC(=O)Nc2nsc(-c3ccc(C(C)(C)C)cc3)n2)s1 | -20.5% |
| Cc1ccn2c(CNCCn3cccn3)c(C(=O)N3CCCCCC3)nc2c1 | -10.5% |
| O=C(CCN1C(=O)c2ccccc2C1=O)Nc1sc2c(c1C(=O)NCc1ccco1)CCCC2 | -13.2% |
| COc1ccc(S(=O)(=O)NCc2ccc(C(=O)N3CCN(Cc4ccccc4)CC3)cc2)cc1 | -12.9% |
| Cc1c(-c2cc[n+]([O-])cc2)oc2ccc(Br)cc2c1=O | -54.2% |
| O=C(CCC1CCCN(C(=O)CCN2CCCCC2=O)C1)NCc1ccccc1F (stereo not shown) | -4.64% |
